Laboratory results from article PMC12136788.
The other results are listed elsewhere or left out.

T1: UNK ZnF1-3 (human, UniProt Q9C0B0 31-174)
T1 sequence: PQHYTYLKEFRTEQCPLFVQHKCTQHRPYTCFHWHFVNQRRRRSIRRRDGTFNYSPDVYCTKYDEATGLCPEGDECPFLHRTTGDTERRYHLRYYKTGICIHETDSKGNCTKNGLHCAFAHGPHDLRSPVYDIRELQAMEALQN

B1: chr13:33351070:33351071:+_ENSG00000083642_ENST00000315596|hu_mus|FALSE|FALSE (ssRNA)
RNA: GGGAGUUCUACAGUCCGACGAUCAUAACCCAGCCUUAGCUGUCCUCACAGGCAGAGGCCUCCCAUCACCACGGUGCCAACACUGUUGCAAAUGAAGAAAGUUAAACACUGAAGGAUUAAGACACAAUUCAAACAUCUUUUAAACAACAGAGGAUUGAGCAUCA
B2: chr16:94664741:94664742:+_ENSMUSG00000040785_ENSMUST00000117648|mus_hu|mus_mus_mus_hu_False|28_38 (ssRNA)
RNA: GGGAGUUCUACAGUCCGACGAUCUGGUACUGAUCUUGGUAGCUGAUAUUCAGGAGAAAGGCUGGCCAAGGGUGUAUAUAUGCUGGUGUACUGGGGCAGGCUAGGUACCAUGUUAAUGUAUGCUGGCGGUGUCUGGGUGAUAUCCAACAGAGGAUUGAGCAUCA
B3: chr7:56126341:56126342:+_ENSG00000146731_ENST00000540286|hu_mus|hu_hu_hu_mus_True|8_38 (ssRNA)
RNA: GGGAGUUCUACAGUCCGACGAUCCAUGUUUCUCCUCUUGGCUCUGCGCAGAGCUACGAUCCCUUCUUUCGCAAGGGCAUCUAAGGAAAAGGGGUCAAUUCCCUUUUGAUUAAUAACGACAAAUCCUUUAUCUGAAUCACCACACAACAGAGGAUUGAGCAUCA
B4: chr2:55462594:55462595:+_ENSG00000143947_ENST00000402285|hu_mus|FALSE|FALSE (ssRNA)
RNA: GGGAGUUCUACAGUCCGACGAUCUCCCAUGAAAACUCCAGCACCACAUUCAUCAGAAGGACACUCUCGACGAAGUCGGCUAAUUUUGCCAUUUUCAUCCACCUUAUAGUAUUUCAGCACAGCCAACUUAACCUUCUUCCUCUUCAACAGAGGAUUGAGCAUCA
B5: chr4:144460044:144460045:+_ENSG00000153147_ENST00000283131|hu_mus|hu_hu_hu_mus_False|1_8 (ssRNA)
RNA: GGGAGUUCUACAGUCCGACGAUCACGGUCCAUAGCCUGAAGAUCAACUUGCGGAUUCCAAUCUGAGUCAUAUAAAAUGACUACAUCAGCAGUUGCAAGAUUGAUGCCCAGACCACCAGCACGUGUGCUUAACAUGAAAACAAACAACAGAGGAUUGAGCAUCA
B6: chr1:109605286:109605287:-_ENSG00000197780_ENST00000461096|hu_hu|motif|central (ssRNA)
RNA: GGGAGUUCUACAGUCCGACGAUCAUAAACAAUAACAUUCAGUGAUCUACUUAAAUCCAAUUGUAAUCCUUACUUUAAACGGAGGGCAAUAAUAAUUUAAUACAUAGAGUAAAUACACACAAAACCUGUGUAUUCAGAACUACACAACAGAGGAUUGAGCAUCA
B7: chr8:35203877:35203878:-_ENSMUSG00000031513_ENSMUST00000033910|mus_mus|motif|central (ssRNA)
RNA: GGGAGUUCUACAGUCCGACGAUCGGAAGGGCACAUCCAAGCAUCAGGAACAUCAGCCCGAUCGCUCCUCCAAAGGACAAACGGAUUAAAGCUUUGAUGCCCGCCAUGGCGGUGACGUCGCUCCUGGCUCCACGACCCGGGCGGCAACAGAGGAUUGAGCAUCA
B8: 108849663_108849783_1118_CDS_ENSMUSG00000025651_ENSMUST00000026743|mouse|control|control (ssRNA)
RNA: GGGAGUUCUACAGUCCGACGAUCGACCAUGUCAUCGAUACUCAUGGCAUCACAGACAAAGUGUGCGCCCAGCAGCCCAGUAUCAGAGUAGGAGAUGUUGAAGGUCUGGAAACUCUGGCAAAGCUUGUUAGCCACAGCAACGGACAACAGAGGAUUGAGCAUCA
B9: chrX:11616105:11616106:-_ENSMUSG00000040363_ENSMUST00000043441|mus_mus|motif|central (ssRNA)
RNA: GGGAGUUCUACAGUCCGACGAUCGAUGUUAUAACACGGCAAGAGGGAGCUUUCAGCAAACUCAAACUCAAACAAAUCGCGGUAGGUAUCCUCUUCCUCAUCUGGGUCUUCUGGUCCUGGGGGAUUAGCCAAAACAUCGUACCCCAACAGAGGAUUGAGCAUCA
B10: 72554271_72554511_1640_CDS_ENSG00000137478_ENST00000311172|human|control|control (ssRNA)
RNA: GGGAGUUCUACAGUCCGACGAUCCAAAGCGGCCAGGGACUGCAGCAUGCUCAGGAGGCUGUUCGAGGUGGGAAACUGUAGGUACUUUUCUGGCACAUAACCCACUUGGCCAACUUUAUUUCGAGCCUUUACCCAGUCUUCCAUCAACAGAGGAUUGAGCAUCA
B11: chr11:86132931:86132932:-_ENSMUSG00000034297_ENSMUST00000043624|mus_mus|FALSE|FALSE (ssRNA)
RNA: GGGAGUUCUACAGUCCGACGAUCUCCAAAAGGUCCAACUGGAUCAUCCUUGAAUUUAUCAUUUGGAAGUUGAGGUGGUAAAAAUUCUACAUCUUUUUUCUUUGGGACUUUGUAAUACUUCCAGGCUACAUUAGCUUCAUCUUCCAACAGAGGAUUGAGCAUCA
B12: chr4:17845017:17845018:+_ENSG00000109805_ENST00000514176|hu_mus|hu_hu_hu_mus_False|1_88 (ssRNA)
RNA: GGGAGUUCUACAGUCCGACGAUCGCUCUCUUAACUUGUAUCUUCAUGAGAAAUUGGUGCAAGGUUAAGUUUACUUUUCUGUAGCGCAGCUGUUUUGGCUCGUCUGGGUAAUCUCAUCUUCAUUUCUGAUGGUGGUUUGGAACUCAACAGAGGAUUGAGCAUCA
B13: 95085810_95085930_128_5pUTR_ENSMUSG00000015711_ENSMUST00000015855|mouse|control|control (ssRNA)
RNA: GGGAGUUCUACAGUCCGACGAUCGCCUCCUGGGAAAUGUAGUCCAGCAGCUCGUGUUUGUCCUCAAGUGAGCAGUUUUCGGAGGGCUAUGACAUGCAAAUUGUGUAUGUGUCACAAUAACUCGCCUUUAUGGCAUCUGAACUUCAACAGAGGAUUGAGCAUCA
B14: chr14:21319651:21319652:-_ENSMUSG00000021816_ENSMUST00000161445|mus_mus|FALSE|FALSE (ssRNA)
RNA: GGGAGUUCUACAGUCCGACGAUCUAGACAUCUGAAGGGUUGAAGAGAACCAUUGCUUCUAGGCUGCAUUACUUAGUCAAAAACAUUUCCAGACAUUUUUAAUUUCCUUUGCAUUUAAACAUAAAGAUGAUACAAAGCCAGCAGCAACAGAGGAUUGAGCAUCA

Each binder was assayed against T1, UNK ZnF1-3 (assay: nsRBNS (natural sequence RNA bind-n-seq); RBNS binding buffer (assumed for nsRBNS): 25 mM Tris pH 7.5, 150 mM KCl, 3 mM MgCl2, 0.01% Triton X-100, 500 ug/ml BSA, 20 U/ml SUPERase-In, 4 C; UNK is unkempt and MSI1 is Musashi-1; names of the RNAs are library labels; protein concentration not given here; high values mean tight binding).

Row | Binder | binding signal [enrichment R]
1 | B1 | 1.18
2 | B2 | 1.22
3 | B3 | 0.982
4 | B4 | 0.949
5 | B5 | 0.863
6 | B6 | 1.21
7 | B7 | 0.99
8 | B8 | 1.02
9 | B9 | 1.34
10 | B10 | 1.23
11 | B11 | 0.797
12 | B12 | 0.492
13 | B13 | 0.775
14 | B14 | 1.21
